In all, about 410,000 compounds went through this assay and about 490 (0.12%) were called active. Inconclusive means that the source gave no clear call. Such entries were picked first, then a sample of the others. Calls come from the whole dose curve; as a rule, active = well fitted inhibition curve with a large enough effect; inconclusive = small, poorly fitted or top-dose-only effect; inactive = flat fitted curve, though single readings scatter. Potencies of inconclusive entries are doubtful fits and often do not repeat.
Target: pyruvate kinase (Trypanosoma brucei) (UniProt Q57TT1)
Assay: qHTS of Trypanosoma Brucei Inhibitors; note: nearly all actives have a fitted effect of over 50% in size
Conditions: TbPYK enzyme, Kinase-Glo Plus ATP luminescence, 45 min; series mostly up to 76.8 µM; activity, negative = inhibition: at the top concentration
Outline: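 Assay buffer: 50 mM TEA pH 7.2, 100 mM KCl, 10 mM MgCl2, 0.05% BSA, 0.01% Tween-20. Pyruvate kinase from T. brucei plus substrate met compound, then ADP (130 uM final). Luminescence was read post 45 min RT.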
% is set by controls: 0 for no effect and ±100 for the full control effect; potency is the fitted concentration of half-maximal effect; tags give direction and shape of the fitted curve.

SMILES | Potency | activity, negative = inhibition
COc1cc(/C=C2/C(=O)c3cccc([N+](=O)[O-])c3C2=O)c(Br)cc1O | inconclusive: 35.5 µM [inhibitor, partial curve, poor fit] | –
CC(C(=O)Nc1ccc(C(=O)O)c(O)c1)N1C(=O)/C(=C\c2ccco2)SC1=S (centres undefined) | inconclusive: 25.1 µM [inhibitor, partial curve, poor fit] | –
COc1cc(NS(=O)(=O)c2ccc(NC(=O)COc3cccc(C)c3)cc2)nc(OC)n1 | inconclusive: 12.6 µM [inhibitor, partial curve, poor fit] | –
Cc1noc(C)c1C(=O)NCc1cccs1 | inconclusive: 44.7 µM [inhibitor, single point] | –
COc1cccc2c1NC(C(=O)O)C1CC=CC21 (centres undefined) | inconclusive: 6.31 µM [inhibitor, full curve] | –
CCOc1cc2c(cc1OC)C(c1cccc([N+](=O)[O-])c1)NCC2 (centres undefined) | inconclusive: 50.1 µM [inhibitor, single point] | –
O=C(/C(=C(\[O-])c1ccccc1)[n+]1ccc2ccccc2c1)c1ccc(Cl)cc1 | – | inactive: 4.98%
COCCn1c(SCC(=O)c2ccc(Cl)cc2)nnc1C(C)C | inconclusive: 35.5 µM [inhibitor, single point] | –
Cc1[nH]c(=S)c(C#N)c2c1CCCC2 | active: 3.55 µM | –
COc1cccc(N(CC(=O)N2CCC(C)CC2)S(=O)(=O)c2ccc(C)cc2)c1 | – | inactive: 0.841%
COc1ccc(Cl)cc1NC(=O)c1c(NCc2ccc(C)o2)sc2c1CCCC2 | inconclusive: 12.6 µM [inhibitor, partial curve] | –
COc1ccc(CN2C(=O)C(NC(=O)c3ccccc3OC)(C(F)(F)F)N=C2c2ccccc2)cc1 (centres undefined) | – | inactive: 2.55%
CC1CCCN(C(=O)c2nn(C)c3c2CSc2ccccc2-3)C1 (centres undefined) | inconclusive: 25.1 µM [inhibitor, partial curve, poor fit] | –
CCCCNC(=O)Nc1nnc(C(C)(C)C)s1 | inconclusive: 50.1 µM [inhibitor, single point] | –
c1ccc2c(c1)ncn2Cc1nnc2sc(-c3ccncc3)nn12 | inconclusive: 25.1 µM [inhibitor, single point] | –
Cc1c(C(=O)Nc2ccc(-n3cnnn3)cc2)oc2ccccc12 | – | inactive: -2.23%
NC(=O)C1CCN(c2nc(-c3ccccc3C(F)(F)F)cs2)CC1 | inconclusive: 31.6 µM [inhibitor, partial curve, poor fit] | –
CN(C(=O)c1ccccc1-c1ncc[nH]1)C1CCCN(Cc2ccccc2F)C1 (centres undefined) | – | inactive: -0.281%
COc1ccccc1-n1c(-c2cn(C)nc2C)n[nH]c1=S | inconclusive: 35.5 µM [inhibitor, partial curve, poor fit] | –
Cc1nccn1CCOc1ccc(Cl)cc1 | – | inactive: -3.54%
COc1ccc(NC(=O)CSc2ncnc3[nH]ncc23)cc1 | inconclusive: 31.6 µM [inhibitor, single point] | –
COc1ccc2[nH]c3c(=O)n(Cc4ccc(C(=O)N5CCC(C(N)=O)CC5)cc4)c(=S)[nH]c3c2c1 | inconclusive: 44.7 µM [inhibitor, partial curve, poor fit] | –
COCCNC(=S)NNC(=O)CSCc1ccc(Cl)cc1Cl | inconclusive: 25.1 µM [inhibitor, partial curve, poor fit] | –

SMILES | Potency | activity, negative = inhibition
Cc1ccc(Cn2c(=S)[nH]c3ccc(N4CCOCC4)cc3c2=O)o1 | inconclusive: 14.1 µM [inhibitor, partial curve, poor fit] | –
O=C(N/N=C/c1ccco1)C(O)C(O)C(=O)N/N=C/c1ccco1 (centres undefined) | – | inactive: 1.3%
CN(CCCC1CCCC1)C(=O)CC1C(=O)NCCN1Cc1ccc(F)cc1 (centres undefined) | – | inactive: 1.24%
Cc1ccc(Cl)cc1NC(=O)CN1C(=O)C(C)(C)c2cc(S(=O)(=O)N3CCCCC3)ccc21 | – | inactive: 0.0046%
Cc1ccc(/C=C/c2nc3ccccc3[nH]2)o1 | inconclusive: 35.5 µM [inhibitor, partial curve, poor fit] | –
COC(=O)c1ccc(CSc2nc(N3CCOCC3)c3c(c2C#N)CC(C)(C)OC3)o1 | inconclusive: 31.6 µM [inhibitor, single point] | –
C=CCOc1c(CNn2cn[nH]c2=S)cccc1OC | inconclusive: 15.8 µM [inhibitor, partial curve, poor fit] | –
OCCCn1c(C2CCCN2c2nc(-c3ccc(Cl)cc3)cs2)nc2cc(C(F)(F)F)ccc21 (centres undefined) | – | inactive: -22.4%
CCCCNC(=O)CS(=O)Cc1nc(-c2cccs2)oc1C (centres undefined) | – | inactive: -11.6%
O=C1c2ccccc2-c2onc3c(NCCO)cc(NC4CCCCC4)c1c23 | inconclusive: 12.6 µM [inhibitor, partial curve] | –
Cc1cc(C2=NNC(=Nc3ccccc3)SC2)c(C)n1C | inconclusive: 12.6 µM [inhibitor, partial curve, poor fit] | –
Cc1ccnc(-n2c(C)cc(C=C3C(=O)N(C)C(=S)N(C)C3=O)c2C)c1 | inconclusive: 28.2 µM [inhibitor, partial curve, poor fit] | –
O=C(NC(N1CCOCC1)C(Cl)(Cl)Cl)c1ccco1 (centres undefined) | – | inactive: 7.21%
Cn1nc(-c2ccc(N3CCOCC3)c(NS(=O)(=O)c3ccc(Cl)cc3)c2)c2ccccc2c1=O | – | inactive: 2.64%
FC(F)(F)c1ccc(Cl)c(-n2c(Cc3cccs3)n[nH]c2=S)c1 | inconclusive: 12.6 µM [inhibitor, partial curve] | –
Cc1occc1C(=O)Nc1ccc(S(N)(=O)=O)cc1 | inconclusive: 31.6 µM [inhibitor, single point] | –
CN1CCSc2ccc(C(=O)NCc3ccccc3)cc21 | inconclusive: 31.6 µM [inhibitor, single point] | –
CCN(CC)CCN1C(=O)c2oc3ccccc3c(=O)c2C1c1ccc(C)cc1 (centres undefined) | inconclusive: 50.1 µM [inhibitor, single point] | –
O=C(CCC(=O)c1ccc(F)cc1)Nc1ccccc1Cl | – | inactive: 1.8%
Cc1cccc(N2C(=O)C=CC2=O)c1 | inconclusive: 35.5 µM [inhibitor, partial curve, poor fit] | –
O=C(NCCc1ccc(O)c(O)c1)C1COc2ccccc2O1 (centres undefined) | inconclusive: 35.5 µM [inhibitor, partial curve] | –
COc1ccc(Oc2nc3c(C)cccn3c(=O)c2/C=C(\C#N)c2nc3ccccc3[nH]2)cc1 | – | inactive: 3.13%
CCn1c(SCC(=O)N2CCCC2)nnc1-c1ccc(N)cc1 | inconclusive: 28.2 µM [inhibitor, single point] | –

SMILES | Potency | activity, negative = inhibition
Cc1ccc(-n2nc3c(=O)n(CC(=O)NCc4ccco4)nc(C)c3c2C)cc1 | – | inactive: -2.79%
CNC[C@@H]1OCc2ccccc2-c2c(n(C)c3ccccc23)C(=O)N([C@H](C)CO)C[C@@H]1C | – | inactive: 1.28%
COc1ccc(CNC(=O)CCc2c(C)c3cc4c(C)coc4cc3oc2=O)cc1 | – | inactive: -2.98%
Oc1c(C=Nc2ccccc2)sc2ccccc12 | inconclusive: 25.1 µM [inhibitor, partial curve] | –
CN(C)S(=O)(=O)c1cccc(NC(=S)NCCCn2ccnc2)c1 | – | inactive: 3.11%
CC1CCN(c2oc(-c3ccc(COc4ccc(Cl)cc4)o3)nc2C#N)CC1 | – | inactive: 0.859%
S=c1[nH]nc(COc2ccccc2)n1/N=C/c1ccco1 | inconclusive: 3.98 µM [inhibitor, partial curve, poor fit] | –
C[C@@H]1CN([C@@H](C)CO)C(=O)c2cc(-c3ccncc3)cnc2O[C@H]1CN(C)C(=O)c1cccc(F)c1 | inconclusive: 31.6 µM [inhibitor, single point] | –
Cc1ccc(OCc2nc(C#N)c(N3CCCC3)o2)cc1 | inconclusive: 31.6 µM [inhibitor, partial curve, poor fit] | –
O=C(/C(=N/N=C/c1ccc(O)c(O)c1O)c1ccccc1)c1ccccc1 | – | inactive: -10.3%
COc1ccc(-n2c(=O)c3c4c(sc3n3c(=S)[nH]nc23)COC(C(C)C)C4)cc1 (centres undefined) | inconclusive: 4.47 µM [inhibitor, full curve] | –
O=C(COC(=O)C1c2ccccc2Oc2ccccc21)NC1CCS(=O)(=O)C1 (centres undefined) | inconclusive: 50.1 µM [inhibitor, single point] | –
CCOC(=O)c1cnc(Nc2nc3ccccc3o2)nc1C | inconclusive: 31.6 µM [inhibitor, partial curve, poor fit] | –
CN1C(=O)/C(=C/c2cccc([N+](=O)[O-])c2)C(=O)N1c1ccccc1 | inconclusive: 35.5 µM [inhibitor, single point] | –
Cn1c(=O)c(=O)n(C)c2cc(S(=O)(=O)NCc3ccc(Cl)cc3)ccc21 | inconclusive: 28.2 µM [inhibitor, single point] | –
CCc1cccc(CC)c1N(COC)C(=O)Cn1c(C)nc2ccccc21 | inconclusive: 22.4 µM [inhibitor, partial curve] | –
Fc1cc(Cl)c(OCc2noc(-c3ccsc3)n2)c(Cl)c1 | – | inactive: -8.46%
Cc1ccccc1CSCC(=O)c1c(N)n(CC(C)C)c(=O)n(C)c1=O | – | inactive: -0.791%
CCC(=O)Nc1nc(=S)ss1 | inconclusive: 22.4 µM [inhibitor, partial curve, poor fit] | –
O=C(Nc1nc2c(s1)COc1ccccc1-2)c1cccs1 | inconclusive: 28.2 µM [inhibitor, partial curve] | –
CC(=O)Nc1ccc(S(=O)(=O)Nc2nc3ccccc3nc2Nc2ccc(C(=O)O)c(O)c2)cc1 | inconclusive: 11.2 µM [inhibitor, partial curve, poor fit] | –
C#CCNC(=O)C1=C[C@H](C)C[C@H](OCc2ccc(CO)cc2)O1 | – | inactive: 0.473%
N/C(=N\OC(=O)c1ccc(Cl)cc1Cl)c1ccccc1 | inconclusive: 50.1 µM [inhibitor, single point] | –

From PubChem BioAssay AID624173 (National Center for Advancing Translational Sciences (NCATS), 2012)
